# From the supplement of paper PMC8728848
# This is one part of the list.
# Tests used:
# Test in all cases: glycan array binding signal (z-score within array); higher = stronger binding
# Conditions in all cases: glycan notation: IUPAC condensed, linker removed
# [1] = target: Neu5Ac(a2-3)Gal(b1-3)[Fuc(a1-4)]GlcNAc(b1-3)Gal(b1-4)[Fuc(a1-3)]GlcNAc
# In short: (§1)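 Columns mapping to the same glycan were averaged after glycan names were converted to IUPAC-condensed notation. The data come from 3228 arrays in the Consortium for Functional Glycomics database, limited to those with an available protein sequence. Binding is reported as a within-array Z-score averaged across arrays of one protein sequence and across linkers.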
# [2] = target: Neu5Ac(a2-3)Gal(b1-3)[Neu5Ac(a2-3)Gal(b1-4)]GlcNAc
# In short: as §1
# [3] = target: Neu5Ac(a2-3)Gal(b1-3)[Neu5Ac(a2-6)]GalNAc
# In short: as §1
# Neu5Ac(a2-3)Gal(b1-4)Glc = target: Neu5Ac(a2-3)Gal(b1-4)Glc
# In short: as §1
# [4] = target: Neu5Ac(a2-3)Gal(b1-4)GlcNAc
# In short: as §1
# [5] = target: Neu5Ac(a2-3)Gal(b1-4)GlcNAc(b1-2)Man(a1-3)[GlcNAc(b1-2)Man(b1-4)GlcNAc(b1-2)Man(a1-6)]Man(b1-4)GlcNAc(b1-4)GlcNAc
# In short: as §1
# [6] = target: Neu5Ac(a2-3)Gal(b1-4)GlcNAc(b1-2)Man(a1-3)[Neu5Ac(a2-3)Gal(b1-4)GlcNAc(b1-2)Man(a1-6)]Man(b1-4)GlcNAc(b1-4)GlcNAc
# In short: as §1
# [7] = target: Neu5Ac(a2-3)Gal(b1-4)GlcNAc(b1-2)Man(a1-3)[Neu5Ac(a2-6)Gal(b1-4)GlcNAc(b1-2)Man(a1-6)]Man(b1-4)GlcNAc(b1-4)GlcNAc
# In short: as §1
# [8] = target: Neu5Ac(a2-3)Gal(b1-4)GlcNAc(b1-3)Gal
# In short: as §1
# [9] = target: Neu5Ac(a2-3)Gal(b1-4)GlcNAc(b1-3)Gal(b1-3)GlcNAc
# In short: as §1
# [10] = target: Neu5Ac(a2-3)Gal(b1-4)GlcNAc(b1-3)Gal(b1-4)GlcNAc
# In short: as §1
# [11] = target: Neu5Ac(a2-3)Gal(b1-4)GlcNAc(b1-3)Gal(b1-4)GlcNAc(b1-3)Gal(b1-4)GlcNAc
# In short: as §1
# [12] = target: Neu5Ac(a2-3)Gal(b1-4)GlcNAc(b1-3)Gal(b1-4)[Fuc(a1-3)]GlcNAc
# In short: as §1
# [13] = target: Neu5Ac(a2-3)Gal(b1-4)GlcNAc(b1-3)GalNAc
# In short: as §1
# [14] = target: Neu5Ac(a2-3)Gal(b1-4)GlcNAc(b1-6)[Gal(b1-3)]GalNAc
# In short: as §1
# [15] = target: Neu5Ac(a2-3)Gal(b1-4)GlcNAc(b1-6)[Neu5Ac(a2-3)Gal(b1-3)]GalNAc
# In short: as §1
# [16] = target: Neu5Ac(a2-3)Gal(b1-4)GlcNAc6S
# In short: as §1
# [17] = target: Neu5Ac(a2-3)Gal(b1-4)[Fuc(a1-3)]GlcNAc
# In short: as §1
# [18] = target: Neu5Ac(a2-3)Gal(b1-4)[Fuc(a1-3)]GlcNAc(b1-3)Gal
# In short: as §1
# [19] = target: Neu5Ac(a2-3)Gal(b1-4)[Fuc(a1-3)]GlcNAc(b1-3)Gal(b1-4)GlcNAc
# In short: as §1
# [20] = target: Neu5Ac(a2-3)Gal(b1-4)[Fuc(a1-3)]GlcNAc(b1-3)Gal(b1-4)[Fuc(a1-3)]GlcNAc(b1-3)Gal(b1-4)[Fuc(a1-3)]GlcNAc
# In short: as §1
# [21] = target: Neu5Ac(a2-3)Gal(b1-4)[Fuc(a1-3)]GlcNAc(b1-3)GalNAc
# In short: as §1
# [22] = target: Neu5Ac(a2-3)Gal(b1-4)[Fuc(a1-3)]GlcNAc(b1-6)[Gal(b1-3)]GalNAc
# In short: as §1
# [23] = target: Neu5Ac(a2-3)Gal(b1-4)[Fuc(a1-3)]GlcNAc(b1-6)[Neu5Ac(a2-3)Gal(b1-3)]GalNAc
# In short: as §1
# [24] = target: Neu5Ac(a2-3)Gal(b1-4)[Fuc(a1-3)]GlcNAc6S
# In short: as §1
# [25] = target: Neu5Ac(a2-3)Gal6S(b1-4)GlcNAc
# In short: as §1
# [26] = target: Neu5Ac(a2-3)Gal6S(b1-4)[Fuc(a1-3)]GlcNAc
# In short: as §1
# Neu5Ac(a2-3)GalNAc = target: Neu5Ac(a2-3)GalNAc
# In short: as §1
# [27] = target: Neu5Ac(a2-3)GalNAc(b1-4)GlcNAc
# In short: as §1
# [28] = target: Neu5Ac(a2-3)[GalNAc(b1-4)]Gal(b1-4)Glc
# In short: as §1
# [29] = target: Neu5Ac(a2-3)[GalNAc(b1-4)]Gal(b1-4)GlcNAc
# In short: as §1
# [30] = target: Neu5Ac(a2-3)[GalNAc(b1-4)]Gal(b1-4)GlcNAc(b1-3)GalNAc
# In short: as §1
# [31] = target: Neu5Ac(a2-3)[Neu5Ac(a2-6)]GalNAc
# In short: as §1
# Neu5Ac(a2-6)Gal = target: Neu5Ac(a2-6)Gal
# In short: as §1
# [32] = target: Neu5Ac(a2-6)Gal(b1-3)GlcNAc(b1-3)[Gal(b1-4)GlcNAc(b1-6)]Gal(b1-4)Glc
# In short: as §1
# Neu5Ac(a2-6)Gal(b1-4)Glc = target: Neu5Ac(a2-6)Gal(b1-4)Glc
# In short: as §1
# [33] = target: Neu5Ac(a2-6)Gal(b1-4)GlcNAc
# In short: as §1
# [34] = target: Neu5Ac(a2-6)Gal(b1-4)GlcNAc(b1-2)Man(a1-3)Man(b1-4)GlcNAc(b1-4)GlcNAc
# In short: as §1
# [35] = target: Neu5Ac(a2-6)Gal(b1-4)GlcNAc(b1-2)Man(a1-3)[Gal(b1-4)GlcNAc(b1-2)Man(a1-6)]Man(b1-4)GlcNAc(b1-4)GlcNAc
# In short: as §1
# [36] = target: Neu5Ac(a2-6)Gal(b1-4)GlcNAc(b1-2)Man(a1-3)[GlcNAc(b1-2)Man(a1-6)]Man(b1-4)GlcNAc(b1-4)GlcNAc
# In short: as §1
binder,measurement,setting,value
"ConA (Canavalia ensiformis), P02866 (protein) MAISKKSSLFLPIFTFITMFLMVVNKVSSSTHETNALHFMFNQFSKDQKDLILQGDATTGTDGNLELTRVSSNGSPQGSSVGRALFYAPVHIWESSAVVASFEATFTFLIKSPDSHPADGIAFFISNIDSSIPSGSTGRLLGLFPDANVIRNSTTIDFNAAYNADTIVAVELDTYPNTDIGDPSYPHIGIDIKSVRSKKTAKWNMQNGKVGTAHIIYNSVDKRLSAVVSYPNADSATVSYDVDLDNVLPEWVRVGLSASTGLYKETNTILSWSFTSKLKSNEIPDIATVV",glycan array binding signal (z-score),[1],-0.056
same,glycan array binding signal (z-score),[2],-0.255
same,glycan array binding signal (z-score),[3],0.093
same,glycan array binding signal (z-score),Neu5Ac(a2-3)Gal(b1-4)Glc,-0.26
same,glycan array binding signal (z-score),[4],-0.29
same,glycan array binding signal (z-score),[5],-0.041
same,glycan array binding signal (z-score),[6],2.21
same,glycan array binding signal (z-score),[7],-0.267
same,glycan array binding signal (z-score),[8],-0.169
same,glycan array binding signal (z-score),[9],-0.263
same,glycan array binding signal (z-score),[10],-0.299
same,glycan array binding signal (z-score),[11],-0.269
same,glycan array binding signal (z-score),[12],-0.281
same,glycan array binding signal (z-score),[13],-0.211
same,glycan array binding signal (z-score),[14],-0.269
same,glycan array binding signal (z-score),[15],-0.251
same,glycan array binding signal (z-score),[16],-0.287
same,glycan array binding signal (z-score),[17],-0.273
same,glycan array binding signal (z-score),[18],-0.254
same,glycan array binding signal (z-score),[19],-0.223
same,glycan array binding signal (z-score),[20],-0.13
same,glycan array binding signal (z-score),[21],0.005
same,glycan array binding signal (z-score),[22],-0.182
same,glycan array binding signal (z-score),[23],-0.085
same,glycan array binding signal (z-score),[24],-0.292
same,glycan array binding signal (z-score),[25],-0.223
same,glycan array binding signal (z-score),[26],-0.168
same,glycan array binding signal (z-score),Neu5Ac(a2-3)GalNAc,-0.289
same,glycan array binding signal (z-score),[27],-0.283
same,glycan array binding signal (z-score),[28],-0.26
same,glycan array binding signal (z-score),[29],-0.218
same,glycan array binding signal (z-score),[30],0.937
same,glycan array binding signal (z-score),[31],-0.287
same,glycan array binding signal (z-score),Neu5Ac(a2-6)Gal,-0.275
same,glycan array binding signal (z-score),[32],-0.227
same,glycan array binding signal (z-score),Neu5Ac(a2-6)Gal(b1-4)Glc,-0.275
same,glycan array binding signal (z-score),[33],-0.26
same,glycan array binding signal (z-score),[34],-0.161
same,glycan array binding signal (z-score),[35],-0.068
same,glycan array binding signal (z-score),[36],0.114
